# PubChem BioAssay (Tox21)
# Values joined by “and” are separate entries in the source; they are usually repeats but may differ in a detail not shown here. Identical values can stand only once. This list was built around the results that the source calls inconclusive (neither active nor inactive); the mix of calls is not that of the screen. Potencies of inconclusive entries are left out as doubtful fits. Active and inactive are the calls of the source. Calls come from the whole dose curve; as a rule, active = well fitted inhibition curve with a large enough effect in the signal ratio in the repeat runs (not every such curve was filed as active); inconclusive = weak or mixed curves, or effect the other way; inactive = no such curve, though single readings can be large or run the other way; the % refers to the signal ratio.
# Molecular target: Peroxisome proliferator-activated receptor delta (Homo sapiens) (UniProt Q03181)
# Assay: qHTS assay to identify small molecule antagonists of the peroxisome proliferator-activated receptor delta (PPARd) signaling pathway (AID 743215);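 note: cells stimulated with agonist L165041 at 300 nM final during compound exposure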
# Details: HEK293H PPARd-UAS-bla, beta-lactamase FRET ratio, antagonist, 17 h; at 62 µM (top of the series)
# Source text: U.S. Tox21 Program National Center for Advancing Translational Sciences [NCATS] NIH Chemical Genomics Center [NCGC] U.S. Environmental Protection Agency [EPA] National Institutes of Environmental Health Sciences [NIEHS] National Toxicology Program [NTP] U.S. Food and Drug Administration [FDA] Tox21 Assay Overview: The peroxisome proliferator-activated receptors (PPARs) are lipid-activated transcription factors of the nuclear receptor superfamily with three distinct subtypes namely PPAR alpha, PPAR delta (PPARd) and PPAR gamma. All these subtypes heterodimerizes with Retinoid X receptor (RXR) and have different physiological functions. […] To identify the compounds that inhibit PPAR-delta signaling, GeneBLAzer PPAR delta UAS-bla HEK293H cell line (Invitrogen, Carlsbad, CA, USA) containing a beta-lactamase reporter gene under the control of an Upstream Activator Sequence (UAS) was used to screen the Tox21 compound library.
# Tox21 Assay Protocol Summary: PPARd-bla cells were dispensed at 3000 cells/5uL/well in 1536-well black wall/clear bottom plates using a Multidrop Combi (Thermo Fisher Scientific, Waltham, MA) dispenser. After the assay plates were incubated at 37 C and 5% CO2 for 5 h, 23 nL of compounds dissolved in DMSO, positive controls or DMSO only was transferred to the assay plate by a Pintool station (Kalypsys, San Diego, CA), followed by addition of 1ul L165041 (300 nM, final concentration in the wells). The assay plates were incubated at 37 C for 17 h, and then 1 uL of LiveBLAzerTM B/G FRET substrate was added using a Bioraptr Flying Reagent Dispenser (FRD) workstation (Beckman Coulter, Indianapolis, IN, USA). The assay plates were incubated at room temperature for 2 h and fluorescence intensity was measured by an Envision plate reader (PerkinElmer, Shelton, CT).
# % is set by controls: 0 for no effect and ±100 for the full control effect; potency is the fitted concentration of half-maximal effect; tags give direction and shape of the fitted curve or compound fluorescence and quenching.
# Chain of UniProt Q03181 (Q03181 whole entry, looked up): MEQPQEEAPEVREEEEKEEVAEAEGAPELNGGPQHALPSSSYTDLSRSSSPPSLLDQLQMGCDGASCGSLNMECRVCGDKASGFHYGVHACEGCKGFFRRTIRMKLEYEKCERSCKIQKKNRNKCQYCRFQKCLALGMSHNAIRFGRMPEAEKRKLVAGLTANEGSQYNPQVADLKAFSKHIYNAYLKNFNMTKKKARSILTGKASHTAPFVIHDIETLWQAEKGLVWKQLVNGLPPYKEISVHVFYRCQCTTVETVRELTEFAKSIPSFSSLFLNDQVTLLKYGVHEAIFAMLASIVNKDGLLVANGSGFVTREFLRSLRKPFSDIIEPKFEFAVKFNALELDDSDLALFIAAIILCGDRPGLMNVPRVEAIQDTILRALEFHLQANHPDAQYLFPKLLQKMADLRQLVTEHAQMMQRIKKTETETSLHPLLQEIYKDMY
row,SMILES,"ratio activity, negative = inhibition"
1,COc1cc(NC(=O)CC(C)=O)c(OC)cc1Cl,inconclusive: -31.9%

# Same assay, conditions: HEK293H PPARd-UAS-bla, beta-lactamase FRET ratio, antagonist, 17 h; at 80.4 µM (top of the series)
row,SMILES,"ratio activity, negative = inhibition"
1,COc1cc(NC(=O)CC(C)=O)c(OC)cc1Cl,inconclusive: -1.31%

# Same assay, conditions: HEK293H PPARd-UAS-bla, beta-lactamase FRET ratio, antagonist, 17 h; ratio activity, negative = inhibition: at 62 µM (top of the series) unless noted
SMILES,Potency,"ratio activity, negative = inhibition"
Cn1c(NCCN(CCO)CCCc2ccc([N+](=O)[O-])cc2)cc(=O)n(C)c1=O,"inconclusive [fluorescent, partial curve, poor fit]",–
CCC(C)C(C)=O (stereo not given),inconclusive [activator],–
Cc1cccc(Nc2ccccc2C(=O)O)c1C,inconclusive [fluorescent],–
CCN1CCN(c2cc3c(cc2F)c(=O)c(C(=O)O)cn3C2CC2)CC1,–,inconclusive: 13.8%
CCCCCCOC(=O)CCCCCCCC(=O)OCCCCCC,inactive,–
OB(O)O,inactive,–
CCCCCCCCCCCCc1ccccc1,–,inconclusive: 5.31%
Cl/C(=C\n1cncn1)c1ccc(Cl)cc1Cl,–,inconclusive: 7.39%
CC(=O)Oc1ccc(C)cc1,–,inconclusive: 1.91%
O=C1[C@H](CC[C@H](O)c2ccc(F)cc2)[C@@H](c2ccc(O)cc2)N1c1ccc(F)cc1,inactive,–
C=CCCCCCCCC,inactive,–
CC(=O)OC/C=C(\C)CC/C=C(\C)CCC=C(C)C,inactive,–
CCc1c2c(nc3ccc(OC(=O)N4CCC(N5CCCCC5)CC4)cc13)-c1cc3c(c(=O)n1C2)COC(=O)[C@]3(O)CC,–,inconclusive: 8.57%
CCCCCCCCCCOS(=O)(=O)O,"inconclusive [activator, full curve, poor fit]",–
Cc1ccc(-c2ccccc2C#N)cc1,inactive,–
CCN1CC(CCN2CCOCC2)C(c2ccccc2)(c2ccccc2)C1=O (stereo not given),–,inconclusive: 0.853%
CCC(=O)/C=C/c1ccc(OC)cc1,–,inconclusive: -24.6%
CCCCCOc1ccc(C2SC(=O)NC2=O)cc1OCC (stereo not given),"inconclusive [rising, partial curve]",–
O=C(O)CCCC[P+](c1ccccc1)(c1ccccc1)c1ccccc1,–,inconclusive: -6.54%

SMILES,Potency,"ratio activity, negative = inhibition"
CCOC(=O)c1cnc2c(cnn2CC)c1NN=C(C)C,"inconclusive [fluorescent, full curve, poor fit]",–
O=c1[nH][nH]c2ccccc12,inactive,–
COc1ccc2c(c1)c(CC(=O)O)c(C)n2C(=O)c1ccc(Cl)cc1,"inconclusive [fluorescent, full curve, poor fit]",inconclusive: 5.46% and inconclusive: -2.14%
CO[Si](CCCS)(OC)OC,–,inconclusive: 13.4%
CN1C(=O)CC(C)(c2ccccc2)C1=O (stereo not given),–,inconclusive: -0.779%
CCCOc1ccccc1-c1nc2n[nH]nc2c(=O)[nH]1,inactive,–
CC(C)(C)C(=O)Oc1ccc(S(=O)(=O)Nc2ccccc2C(=O)NCC(=O)O)cc1,inactive,–
Cc1cccc(C)c1[N+](=O)[O-],"inconclusive [rising, partial curve, poor fit]",–
CCC(C(=O)OCCN1CCOC(c2ccccc2)C1C)c1ccccc1 (stereo not given),–,inconclusive: -5.75%
CCC[C@H](N[C@@H](C)C(=O)N1[C@H](C(=O)O)C[C@@H]2CCCC[C@@H]21)C(=O)OCC,–,inconclusive: -14.5%
FC(F)(F)c1ccc(Cl)c(Cl)c1,"inconclusive [rising, partial curve, poor fit]",–
Oc1cc(O)c(Cl)cc1Cl,inactive,–
NC(N)=N/N=C/c1c(Cl)cccc1Cl,"inconclusive [activator, partial curve, poor fit]",–
CC(C)=CCCC(C)C=O (stereo not given),–,inconclusive: 3.1%
Cc1nc2ccccc2n1Cc1ccc(Cl)cc1,–,inconclusive: 3.22%
O=C(OCC1(COC(=O)c2cccnc2)CCCC(COC(=O)c2cccnc2)(COC(=O)c2cccnc2)C1O)c1cccnc1,inactive,–
CC(C)(C)c1cc(CCC(=O)NN)cc(C(C)(C)C)c1O,–,inconclusive: 6.28%
CCCC1CCC(=O)O1 (stereo not given),inactive,–
